# Some of the results follow. Viral Rep nickase domains cut single-stranded DNA in vitro (3 µM enzyme, 1 h, 37 °C); shown is the middle of each 90-letter strand. Uncut reads are compared with the no-enzyme pool on a log2 scale; the lower, the more was cut; hits are not called. Shares of all reads are compared, so uncut sequences can rise above 0 when many others are cut.
# Legend:
# Test in all cases: uncleaved DNA left, log2 of reads against the no-enzyme library (log2 ratio); higher = less cleavage (more negative = more Rep cleavage of the k-mer); sequences stand for … in CTCGTCCG…ACCGGAGA
# [1] = system: T1, Rep nickase domain of Muscovy duck circovirus
# T1 sequence (residues 1-111 of Rep, tag left off): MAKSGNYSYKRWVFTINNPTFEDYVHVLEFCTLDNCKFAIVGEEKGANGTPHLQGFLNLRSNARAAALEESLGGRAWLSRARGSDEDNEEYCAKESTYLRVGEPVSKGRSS
# Method: (§1)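 A pool of 90-nt single-stranded DNAs with seven random bases just before the constant AC of the nick site (name = the seven bases) was cut by 3 µM recombinant His6-SUMO-tagged Rep nickase domain (300 nM DNA, 50 mM HEPES pH 8.0, 50 mM NaCl, 1 mM MnCl2, 1 h, 37 °C, three replicates). Uncut DNA was amplified and sequenced.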
# [2] = system: T2, Rep nickase domain of banana bunchy top virus
# T2 sequence (residues 1-94 of Rep, tag left off): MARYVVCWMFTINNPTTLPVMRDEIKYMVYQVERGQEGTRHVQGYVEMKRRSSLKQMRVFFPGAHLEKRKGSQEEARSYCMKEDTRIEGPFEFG
# Method: as §1
# [3] = system: T3, Rep nickase domain of cabbage leaf curl virus
# T3 sequence (residues 1-116 of Rep, tag left off): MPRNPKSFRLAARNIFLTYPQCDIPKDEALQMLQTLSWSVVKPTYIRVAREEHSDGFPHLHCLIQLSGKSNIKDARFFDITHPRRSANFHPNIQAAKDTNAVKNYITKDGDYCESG
# Method: as §1
# [4] = system: T4, Rep nickase domain of chickpea chlorotic dwarf virus
# T4 sequence (residues 1-124 of Rep, tag left off): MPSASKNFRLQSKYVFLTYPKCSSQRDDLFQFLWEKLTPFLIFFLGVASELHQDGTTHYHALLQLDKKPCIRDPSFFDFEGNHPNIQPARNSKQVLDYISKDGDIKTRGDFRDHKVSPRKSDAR
# Method: as §1
# [5] = system: T5, Rep nickase domain of faba bean necrotic yellows virus
# T5 sequence (residues 1-98 of Rep, tag left off): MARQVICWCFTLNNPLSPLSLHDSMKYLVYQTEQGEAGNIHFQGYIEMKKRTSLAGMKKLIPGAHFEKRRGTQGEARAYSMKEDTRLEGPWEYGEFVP
# Method: as §1
# [6] = system: T6, Rep nickase domain of maize striate mosaic virus
# T6 sequence (residues 1-117 of Rep, tag left off): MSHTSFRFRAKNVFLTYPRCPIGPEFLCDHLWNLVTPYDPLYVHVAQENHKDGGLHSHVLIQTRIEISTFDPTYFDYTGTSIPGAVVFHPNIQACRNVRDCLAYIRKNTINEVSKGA
# Method: as §1
# [7] = system: T7, Rep nickase domain of porcine circovirus 2
# T7 sequence (residues 2-116 of Rep, tag left off): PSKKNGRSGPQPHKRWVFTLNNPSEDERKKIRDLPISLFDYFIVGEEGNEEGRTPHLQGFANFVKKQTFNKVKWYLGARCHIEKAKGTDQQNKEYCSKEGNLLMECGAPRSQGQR
# Method: as §1
# [8] = system: T8, Rep nickase domain of tomato yellow leaf curl virus
# T8 sequence (residues 1-136 of Rep, tag left off): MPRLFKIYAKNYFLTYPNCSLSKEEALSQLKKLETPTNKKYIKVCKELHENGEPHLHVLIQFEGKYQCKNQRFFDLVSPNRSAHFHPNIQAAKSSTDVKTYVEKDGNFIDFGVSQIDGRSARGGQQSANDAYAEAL
# Method: as §1
# [9] = system: T9, Rep nickase domain of wheat dwarf virus
# T9 sequence (residues 1-137 of Rep, tag left off): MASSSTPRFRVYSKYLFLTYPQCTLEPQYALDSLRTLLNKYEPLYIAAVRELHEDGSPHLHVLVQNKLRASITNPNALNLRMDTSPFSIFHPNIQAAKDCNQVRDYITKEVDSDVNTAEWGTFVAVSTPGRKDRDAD
# Method: as §1
Sequence,uncleaved DNA left (log2) [1],uncleaved DNA left (log2) [2],uncleaved DNA left (log2) [3],uncleaved DNA left (log2) [4],uncleaved DNA left (log2) [5],uncleaved DNA left (log2) [6],uncleaved DNA left (log2) [7],uncleaved DNA left (log2) [8],uncleaved DNA left (log2) [9]
TACCGCT,0.0467,0.0194,-0.221,0.704,0.0277,0.551,-1.25,-0.0377,-0.0966
TTAACGC,0.11,-0.0741,-0.448,-0.684,-0.0036,-0.734,0.124,-0.00254,-0.046
ATATCGG,0.132,0.112,0.507,1.44,0.1,1.55,0.163,0.026,0.0729
GTGATGA,-0.00324,0.0741,0.367,1.01,0.0244,1.72,0.0756,0.0265,0.127
AATCCTA,-0.166,0.0242,-0.0904,-1.99,-0.0956,-0.732,-0.321,0.0175,-0.0987
ATGTGAT,0.0723,0.0103,0.166,1.47,-0.0211,1.73,-0.471,-0.0621,0.0726
GGGTTAT,-0.0121,0.0854,0.805,1.9,-0.00371,2.23,-0.00894,0.0308,0.0594
TGAGAAT,0.0236,0.0761,0.112,0.973,-0.112,1.49,0.00968,-0.0826,0.165
CATCGGA,-0.00119,-0.0424,0.0605,0.0605,0.013,-0.427,0.0678,0.0344,-0.0326
CCTCGTG,0.157,0.0448,-0.67,-0.912,0.0828,-0.943,0.198,0.0469,-0.239
AGTGGGG,0.269,0.0864,0.45,0.631,0.155,0.813,0.292,0.0755,0.141
CAGTTTG,0.0122,-0.096,-0.596,-0.755,-0.0218,-1.01,-1.28,-0.0799,-0.0656
ACTTTGT,-0.0954,-0.0887,-0.379,-0.807,-0.0341,-1.21,-0.286,-0.198,-0.21
CCATCTG,0.0296,-0.0385,-0.107,0.121,0.0573,-0.25,0.104,-0.126,0.0101
GTCCTTG,-0.104,0.0242,0.27,0.668,-0.0839,1.69,0.0325,0.0528,-0.0539
GTTTACT,-1.59,0.00505,0.308,0.26,0.0704,1.65,-2.07,0.0468,-0.00798
ACTATAA,-0.0331,0.0193,-0.356,-0.286,-0.029,-0.683,0.000933,-0.154,-0.0987
AGTGGTC,-0.018,0.0138,0.139,0.403,-0.0328,0.604,-0.0231,-0.0871,-0.0578
CGAAGAG,0.173,0.134,-0.435,-0.312,0.115,-0.876,0.228,0.162,0.00255
AGGGGCC,0.0258,0.0664,0.367,1.1,-0.0197,1.09,0.19,0.0618,-0.0169

Sequence,uncleaved DNA left (log2) [1],uncleaved DNA left (log2) [2],uncleaved DNA left (log2) [3],uncleaved DNA left (log2) [4],uncleaved DNA left (log2) [5],uncleaved DNA left (log2) [6],uncleaved DNA left (log2) [7],uncleaved DNA left (log2) [8],uncleaved DNA left (log2) [9]
AGGTTAT,-0.0152,-0.0357,0.228,0.885,-0.0579,1.38,-1.11,-0.0951,-0.0071
ACAGGCT,0.0438,0.0919,-0.453,-0.895,0.0965,-0.632,0.239,0.115,-0.0673
TCGGGGC,-0.00829,0.0188,0.735,1.13,-0.14,1.95,0.252,3.93e-05,-0.015
TTCGCGA,0.0755,-0.129,-0.754,-0.175,0.0487,-0.86,0.0277,0.0221,-0.155
TTACCAT,-0.0493,0.0924,0.0132,-2.25,0.0206,-0.137,-1.15,0.125,0.113
TAGCCTG,-0.135,-0.128,-0.169,0.479,-0.16,1.48,0.0486,-0.128,-0.0591
TAAAAAG,0.031,0.079,-1.24,-2.19,0.224,-1.39,0.153,0.111,-0.0607
GGATCTT,-0.275,0.0234,0.711,1.49,-0.0783,2.08,-0.8,0.0174,0.162
TCAAAGC,0.0574,0.11,-0.136,-0.312,0.0802,-0.997,0.205,0.116,-0.0027
AAGCCGG,-0.137,0.0159,0.244,0.797,-0.0213,0.857,-0.0137,-0.15,-0.0384
GATCAGA,0.0925,0.017,0.166,0.475,0.0081,0.226,0.029,0.0633,0.145
GCTACGG,-0.119,0.0426,0.423,1.38,-0.0612,1.96,0.089,-0.174,-0.0617
GCCCGGC,-0.079,-0.133,0.0227,0.371,-0.14,-0.252,-0.0242,-0.151,-0.241
CAGCAGC,-0.121,-0.0477,-0.564,-0.622,-0.0907,-1.07,0.208,-0.0807,-0.0776
GCCACGA,0.033,-0.0553,-0.0063,0.224,-0.0756,-0.563,0.0628,0.0128,0.00696
GGATGCA,0.0435,-0.0276,0.343,0.911,0.0308,0.779,0.00395,-0.0403,0.11
ACCACTG,-0.00485,0.00217,-0.436,-0.0894,-0.0951,-0.484,0.0735,-0.0638,-0.134
GTTCGGC,0.129,0.0217,0.287,0.816,0.0148,0.869,0.136,0.0153,0.0435
TCCTCTC,-0.0938,-0.148,0.133,-0.243,-0.0633,-0.429,-0.119,-0.225,-0.134
GGCCCAC,0.137,0.0944,0.503,1.18,0.0492,1.78,0.0906,0.1,0.242

Sequence,uncleaved DNA left (log2) [1],uncleaved DNA left (log2) [2],uncleaved DNA left (log2) [3],uncleaved DNA left (log2) [4],uncleaved DNA left (log2) [5],uncleaved DNA left (log2) [6],uncleaved DNA left (log2) [7],uncleaved DNA left (log2) [8],uncleaved DNA left (log2) [9]
ATCCTAT,0.0292,0.0477,0.168,-0.718,0.22,-0.687,-0.101,-0.0239,-0.0115
TAAAGAG,0.0486,-0.0137,-1.51,-2.03,0.0898,-1.18,0.239,0.107,0.0771
CATCGTC,0.0432,-0.0371,-0.269,-0.501,0.0519,-1.01,0.0446,-0.0986,-0.0343
AACTAAC,0.0467,-0.0689,-0.504,-2.03,-0.00863,-0.881,-0.478,-0.0238,0.026
CGTTTCG,-0.0239,-0.000616,-0.67,0.227,-0.0103,-0.869,0.139,0.0361,-0.0671
CCGCTCA,-0.024,-0.0895,-0.0679,-0.913,-0.223,-0.481,-0.0821,-0.0151,-0.15
CGTTGGC,0.000142,-0.115,-0.555,-0.48,-0.0437,-0.966,-0.00423,0.0175,-0.214
CGGCCAC,-0.102,-0.00805,0.143,0.353,-0.0612,0.243,0.0203,-0.0532,-0.0262
ACTGCAA,0.0686,-0.034,-0.203,-0.0956,-0.027,-0.817,-0.0232,0.0895,0.0646
CCTCTTG,0.0214,-0.0605,-0.623,-1.34,0.147,-1.09,0.0367,0.0412,-0.153
GCAAGCC,-0.00466,-0.0419,-0.155,-0.0312,-0.0665,-0.267,0.0789,-0.119,-0.0812
TGAATAG,0.101,0.202,-0.619,-0.351,0.224,-1.08,0.304,0.235,0.051
TCCATTC,-0.209,-0.0927,-0.284,-0.496,-0.206,-1.31,-0.0935,0.0779,-0.138
CTGGACG,0.0984,0.109,-0.303,-0.325,0.173,-0.808,0.203,0.0629,0.0165
TTAGAAG,0.0685,-0.0292,-0.747,-0.797,0.0426,-1.23,0.0525,0.0321,-0.0849
CTTCCTC,-0.0699,-0.0667,0.0336,-0.311,-0.0421,-0.434,-0.201,-0.0475,-0.0602
GCCTAGA,0.109,0.0871,0.212,0.545,-0.00743,-0.274,0.0527,0.0549,-0.0108
TCAAAGA,0.0729,-0.0525,-0.0318,-0.0366,-0.0436,-0.894,0.0784,-0.12,-0.047
TTACCCA,-0.18,0.0318,-0.0394,-2.15,-0.0372,-0.173,-1.84,0.0891,0.0116
CCCTATG,0.0308,-0.0528,-0.627,-0.456,0.0485,-1.1,0.182,-0.0713,-0.0883

# From the supplement of paper PMC7826260
